Data reported in PubChem BioAssay AID1508624 (National Center for Advancing Translational Sciences (NCATS), 2021).
Out of some 48,000 compounds screened, about 120 (0.25%) were called active. Roughly 4% stayed inconclusive and do not appear here. The call rests on the fitted dose curve; in most records, active means well fitted activation curve with a large enough effect; inconclusive means small, poorly fitted or top-dose-only effect, or another doubt; inactive means no such curve, though single readings can be large or run the other way. The list shows a part of the results.

Experiment: Primary qHTS for Identification of Small Molecule Activators of Huntingtin-Antisense Promoter Activity; further: nearly all actives have a fitted effect of over 55% in size
Conditions: HEK293 HTT-AS promoter firefly luciferase reporter, 24 h; series mostly up to 57.5 µM; activity change, positive = activation: at the top concentration
Method in brief: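 HEK293 luciferase promoter-reporter cells (2,500/well) plated 24 h, then compounds added at up to 57.5 uM final for 24 h at 37 °C. Firefly luminescence by Dual-Glo, normalized to vehicle (0%) and zero RLU (-100%).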

Activity change, positive = activation, inactive:
O=C(CS(=O)(=O)c1ccc(Cl)cc1)Nc1nc2ccc(Br)cc2s1 -13.4%
COc1ccc(CCNC(=O)CCN2N=C(c3ccccc3)CCC2=O)cc1OC -7.76%
COc1cc(Cl)c(C)cc1NC(=O)Cn1cnc2sc(C)c(S(=O)(=O)N3CCCCC3)c2c1=O -25%
Cc1noc(NS(=O)(=O)c2ccc(NC(=O)COc3ccccc3Br)cc2)c1C -26.7%
CCOc1ccccc1NC(=O)Nc1ccccc1OCc1cc(=O)n2ccccc2n1 0.382%
Cc1ccc(CCNC(=O)c2ccc(CS(=O)(=O)Cc3ccc(Cl)cc3)o2)cc1 -12.6%
CN(CC(=O)NCc1ccc(Cl)cc1)S(=O)(=O)c1ccc2c(c1)c(=O)n(C)c(=O)n2C -14.1%
CCOC(=O)c1scc(-c2ccc(C)cc2)c1S(=O)(=O)Nc1cc(C)ccc1C -34.2%
CCOC(=O)C1=C(C)NC2=C(C(=O)CC(C)(C)C2)C1c1ccc(-c2ccccc2)cc1 (stereo not given) -29.3%
COc1cc(/C=C/C(=O)O[C@H]2CC[C@]34C[C@]35CC[C@]3(C)[C@@H]([C@H](C)CCC=C(C)C)CC[C@@]3(C)[C@@H]5CC[C@H]4C2(C)C)ccc1O -3.57%
CCOc1ccccc1NC(=O)Cn1c(=O)n(-c2ccc(C)c(C)c2)c(=O)c2c(C)c(C(=O)N(C)C)sc21 -1.26%
CC(Nc1ncnc2c1cnn2-c1cccc(Cl)c1)c1ccccc1 (stereo not given) 29.4%
COc1cccc(-c2nnc(SCC(=O)N3CCc4ccccc43)o2)c1 -3.39%
Cc1cc2c(cc1C)NC(CC(=O)Nc1cccc(C)c1C)C(=O)N2 (stereo not given) -6.63%
CCS(=O)(=O)c1c(S(=O)(=O)CC)c2cc(C(C)(C)C)ccn2c1C(=O)c1ccc(F)cc1 -22.2%
O=C(NCc1ccc(Cl)cc1)C(=O)NCC(c1cccnc1)N1CCN(c2ccccc2)CC1 (stereo not given) -57.1%
COC(=O)c1sc2cccc(F)c2c1S(=O)(=O)NCc1ccc(F)cc1 3.62%
COc1ccc(C2CC(=O)N(Cc3cccc(C)c3)c3c2c(C)nn3-c2nc(C)cc(C)n2)c(OC)c1 (stereo not given) -19.1%
Cc1ccccc1-n1c(=O)c2ccccc2n(Cc2ccc(F)cc2)c1=O -25.8%
CCOC(=O)c1cnc2c(Cl)c(Cl)ccc2c1Nc1ccc(N(C)C)cc1 -5.64%
COc1ccc(-n2c(=O)c3c4c(sc3n(Cc3c(F)cccc3Cl)c2=O)CN(C(C)=O)CC4)cc1OC -9.94%
CCOC(=O)c1ccccc1NC(=O)CN(c1cc(C(F)(F)F)ccc1Cl)S(C)(=O)=O -29.9%
CCCc1cc(C(N)=S)ccn1
Cc1ccc(-c2noc(CN(C(=O)c3ccc(C(C)(C)C)cc3)C(C)C)n2)cc1 -24.5%
COc1cccc(NC(=O)Cn2c(=O)c3cccn3c3ccc(F)cc32)c1 -31%
O=S(=O)(c1ccccc1)n1nc(-c2ccc(Cl)cc2)nc1NCc1ccc(F)cc1 -21.8%
CCCCSCCCNC(=O)c1cn(CC)c2ccc(S(=O)(=O)N(C)C3CCCCC3)cc2c1=O -31.6%
COc1cccc(-c2nc(SCC(=O)NCc3ccccc3)c3c(=O)n(C)c(=O)n(C)c3n2)c1 3.33%
Cc1ccc(CCNC(=O)CCS(=O)(=O)c2ccc3c(c2)oc(=O)n3C)cc1 8.34% [at 11.5 µM, percent change from vehicle, -100% = no light]
O=C(Cn1ccc2cc(S(=O)(=O)N3CCCCCC3)ccc21)NCCc1ccccc1Cl -29.6%
COc1cccc(N2CCN(S(=O)(=O)c3ccc(-c4cc(C(F)(F)F)on4)s3)CC2)c1 -8.39%
CCCOc1ccc(C(=O)Nc2cccc(NC(=O)c3ccc(Cl)cc3Cl)c2)cc1 5.01% [at 11.5 µM, percent change from vehicle, -100% = no light]
CC(=O)N1CCc2cc(CNS(=O)(=O)c3ccccc3C(F)(F)F)ccc21 -2.42%
Cc1nn(CC(=O)NCc2ccco2)c(=O)c2nn(-c3ccccc3)c(C)c12 15.9%
CCOc1cccc(C2Oc3nc(SC)nnc3-c3ccccc3N2C(C)=O)c1OC (stereo not given) 1.48% [at 11.5 µM, percent change from vehicle, -100% = no light]
Cc1cc(C)cc(NC(=O)Cn2c(C)cc(C)c(C#N)c2=O)c1 -3.66%
O=C(CSc1nc2ccccc2n1Cc1cccc(C(F)(F)F)c1)NCc1ccccc1 -17.5%
O=C(O)c1ccc(CSc2nc3cccnc3n2Cc2cccc(F)c2)cc1 -8.98%
CC(=O)Nc1ccc(NC(=O)c2c(-c3ccccc3)noc2C)cc1 -11.4%
Nc1ncc(S(=O)(=O)N2CCN(c3ccccc3)CC2)cn1 -14.7%
COC(=O)CC1Oc2ccc(Cl)cc2-n2cc(-c3ccc(C)cc3)nc21 (stereo not given) -16.3%
O=C(CSc1nc2c([nH]c3ccccc32)c(=O)n1-c1ccc(F)cc1)Nc1ccc2c(c1)OCO2 -37.7%
Cc1ccc(S(=O)(=O)C(CNC(=O)C(=O)NCCc2ccc(F)cc2)c2cccs2)cc1 (stereo not given) -40.1%
COc1cc(NC(=O)CSc2ccc(-c3sc(C)nc3C)nn2)cc(OC)c1 -32.6%
COc1ccc(Cl)cc1NC(=O)c1oc2ccc(S(=O)(=O)N3CCCCC3)cc2c1C 15.2%
COc1ccc(N2CCN(C(=O)c3ccc(CS(=O)c4cccc(C)c4)o3)CC2)cc1 (stereo not given) -23.1%
CCN(c1ccc(C)cc1C)S(=O)(=O)c1nnc(NC(=O)c2ccc(F)cc2)s1 -47.4%
CCN(Cc1ccccc1)C(=O)CN1C(=O)COc2ccc(S(=O)(=O)N3CCOCC3)cc21 -4.24%
CC(C)CNc1ccnc(NCc2csc(-c3ccccc3)n2)n1 -89.5%
Cc1ccc2oc(=O)c(-c3nc(-c4cccs4)no3)cc2c1 10.5%
Cc1nn(CCC(=O)Nc2cccc(C#N)c2)c(C)c1S(=O)(=O)N1CCC(C)CC1 -25.4%
COc1ccc(-n2cnc3cc(C(=O)NCCC4=CCCCC4)ccc32)cc1 -0.11%
COC(=O)c1ccccc1NC(=O)Cc1nc(-c2ccc(OC)cc2)no1 -24%
COc1cc2c(Nc3ccc(NC(=O)c4ccccc4)cc3)ncnc2cc1OCCCN1CCOCC1 -15.5%
COc1ccc(OC)c(NC(=O)CN(c2ccccc2OC)S(=O)(=O)c2ccc(C)cc2)c1 -32.3%
O=C(Nc1cccc(C(=O)OCc2cc(=O)n3ccsc3n2)c1)c1ccc(F)cc1 16%
Cc1csc2nc(COC(=O)c3ccc(NC(=O)c4ccccc4Br)cc3)cc(=O)n12 -31.3%
CCOCCCNC(=O)CCC(=O)NNc1nc2ccccc2c2nc(C)nn12 -6.38%
Cc1nc2nc(SCC(=O)NCCc3ccc(Cl)cc3)nn2c(C)c1Cc1c(F)cccc1Cl -19.5%
Cc1ccc(NC(=O)C2CCCN2S(=O)(=O)c2ccc3c(c2)n(C)c(=O)c(=O)n3C)cc1 (stereo not given) -6.11%
N#C/C(=C\c1ccc(-c2ccc(Br)cc2)o1)C(=O)Nc1ccccc1O 0.497%
Cc1ccc(-n2ncc3c(N4CCN(Cc5ccccc5)CC4)ncnc32)cc1C 0%
COc1cc2c(NC3CCN(C(C)C)CC3)nc(C3CCCCC3)nc2cc1OCCCN1CCCC1 3.95%
Cc1oc(-c2ccccc2F)nc1Cn1c(SCc2cccc(Cl)c2)nc2ccncc21 -13.5%
CCOCCc1nn2c(=O)cc(COC(=O)c3ccccc3Br)nc2s1 -6.1%
O=C(NCCc1csc(-c2ccc(C(F)(F)F)cc2)n1)c1ccccc1Cl -30.8%
Cc1ccc(CNC(=O)C(=O)NCC(c2cccs2)S(=O)(=O)c2ccccc2)cc1 (stereo not given) -15.8%
CCCn1c(=N)c(C(=O)NCc2ccccc2)cc2c(=O)n3cccc(C)c3nc21 5.29%
CC(Cc1cccc(C(F)(F)F)c1)NCCOC(=O)c1ccccc1 (stereo not given) -5.89%
Oc1c(C(c2cccc(Cl)c2)N2CCOCC2)sc2nc(-c3ccco3)nn12 (stereo not given) 1.63%
CCN1c2ccccc2-c2nc(SCC(=O)Nc3cc(C)c(Cl)cc3OC)ncc2S1(=O)=O -15.5%
O=C(COc1ccc(F)cc1)NCc1ccc2c(c1)CCN2C(=O)c1ccc(F)cc1 -10.9%
COc1ccc(CCNC(=O)c2c3c(nc4ccccc24)C(=O)N(C2CCCCC2)C3)cc1OC -16.7%
O=C(Nc1ccc(F)c(Cl)c1)C1CCN(c2ncccn2)CC1 -18.2%
Cc1cc(-n2c(C)nc3ccccc3c2=O)ccc1NC(=O)c1cccc([N+](=O)[O-])c1C -8.99%
Cc1cccc(OCC(=O)Nc2ccc(S(=O)(=O)N(Cc3ccccc3)c3ccccc3)cc2)c1 -13%
COC(=O)c1ccccc1NC(=O)C1CCCN(C(=O)c2cnn(-c3ccc(F)cc3)c2-n2cccc2)C1 (stereo not given) -7.68%
COCCn1c(=O)[nH]c2cc(C(=O)N3CCN(c4ccc(F)cc4)CC3)ccc2c1=O -22.9%
Cc1cc(Br)cc(C)c1OCC(=O)Nc1ccc(S(=O)(=O)Nc2ncccn2)cc1 -13.9%
CCOC(=O)c1cccc(NC(=O)Cn2cnc3nc4c(cc3c2=O)CCCC4)c1 0.522%
CCN(CC)CCCNC(=O)c1ccc2c(c1)NC(=O)C(CS(=O)(=O)Cc1ccc(F)cc1Cl)N2 (stereo not given) -4.45%
COCCNC(=O)c1sc2nc3n(c(=O)c2c1C)CCC3 -6.26%
COc1ccc(N2CC(c3nc(-c4ccccc4C)no3)CC2=O)cc1Cl (stereo not given) -9.98%
CCc1ccc(NS(=O)(=O)c2ccc3[nH]cc(C(=O)NCCc4ccccc4)c(=O)c3c2)cc1 14.1%
CCNC(=O)NCCCOc1cccc(CN2CCCCC2)c1 -29.6%
Cc1cccc(CNC(=O)C2CCN(S(=O)(=O)c3cccc4nonc34)CC2)c1 -6.94%
CCCC(=O)OCc1cnc(C)c2oc(=O)c(C(=O)Nc3ccc(F)cc3C)cc12 -12.7%
C[C@@]1(C(=O)Nc2ccc(F)nc2)CCCN1c1nc(Nc2cc(C3CC3)[nH]n2)c2cccn2n1 -45.8%
COc1ccc(-c2noc(CNC(=O)c3ccc(OC)cc3OC)n2)cc1 -15.7%
CCC1=Nc2cc(C(=O)N3CCC(C)CC3)ccc2Sc2ccc(C)cc21 -13.7%
